# Data as given in PubChem BioAssay AID651820 (National Center for Advancing Translational Sciences (NCATS), 2012).
# Hit rate of the full screen: of about 340,000 compounds, about 12,000 (3.5%) were called active. This list was built around the results that the source calls inconclusive (neither active nor inactive); the mix of calls is not that of the screen. Calls follow the shape of the dose curve; as a rule, active = well fitted inhibition curve with a large enough effect; inconclusive = small, poorly fitted or top-dose-only effect, or another doubt; inactive = no such curve, though single readings can be large or run the other way. Potencies of inconclusive entries are left out as doubtful fits.
# Test: qHTS Assay for Inhibitors of Hepatitis C Virus (HCV)
# Details: Huh7.5.1 HCVcc-Cre (HCVcc is cell-culture hepatitis C virus) infection, luciferase reporter, 44 h; series mostly up to 41.8 µM
# Outline: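 Infectious HCVcc-Cre (~0.5 moi) was added to cells just after compound, with cells seeded 4 h earlier at 1,000 per well. Luciferase activity after 44 h culture reported infection; substrate was incubated 15 min at room temperature before reading.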
# Potency is read from the fitted curve at half-maximal effect; tags tell the direction and shape of the fitted curve.
row,SMILES,Potency
1,COc1ccc2c(c1OC)C(=O)N(c1cccc(/C=C/C(=O)O)c1)C2,inactive
2,O=C(CNC(=O)c1ccccc1)N/N=C/c1ccc([N+](=O)[O-])o1,"inconclusive [inhibitor, single point]"
3,COC(=O)c1cc(C(=O)OCC(=O)N2CCCCC2)cc([N+](=O)[O-])c1,inactive
4,CCOc1cc(CNCC(C)C)c(Cl)cc1OCC(=O)Nc1ccccc1,"inconclusive [inhibitor, full curve]"
5,COc1ccc2c(CC(=O)Nc3ccccc3OC)coc2c1,inactive
6,Cc1cccc(-n2c(O)c(/C=N/NC(=O)c3ccccc3Cl)c3ccccc3c2=O)n1,"inconclusive [inhibitor, single point]"
7,O=C(COc1cccc(F)c1)NNC(=O)Cc1ccc(S(=O)(=O)N2CCOCC2)s1,inactive
8,Cc1ccc(/C(CSc2nccn2-c2ncc(C(F)(F)F)cc2Cl)=N\O)cc1,"inconclusive [inhibitor, single point]"
9,CCCOc1cccc(C(=O)Nc2cccc(NC(=O)c3ccco3)c2)c1,active: 25.1 µM
10,Clc1ccc(-c2nnc(NC3=NCCCCC3)o2)cc1,"inconclusive [inhibitor, single point]"
11,CCc1nc(SCC(=O)N2CCC(C)CC2)c2c(=O)n(C)c(=O)n(C)c2n1,"inconclusive [inhibitor, single point]"
12,Cc1c(O)ccc2c(CN3CCN(C/C=C/c4ccccc4)CC3)cc(=O)oc12,active: 11.2 µM
13,CN(C(=O)/C(N=Nc1cccc(C(F)(F)F)c1)=C(\O)C(F)(F)F)c1ccccc1,"inconclusive [inhibitor, single point]"
14,COCCNc1cc(-c2ccccc2)nc2cc(-c3cccc(F)c3)nn12,"inconclusive [inhibitor, partial curve, poor fit]"
15,CCOC(=O)c1sc2nc(-c3ccco3)c3c(c2c1N)CC(C)(C)OC3,"inconclusive [inhibitor, single point]"
16,Cc1cc(O)c(C=Nc2ccc(Cl)cn2)c(=O)o1,inactive
17,COc1ccc(OCCCC(=O)Nc2cc(S(=O)(=O)N3CCCCC3)ccc2C)cc1,"inconclusive [inhibitor, single point]"
18,ClC(Cl)(Cl)c1nc2ccccc2n2nncc12,active: 12.6 µM
19,COc1cc2c(cc1OC)CN(C(=O)c1cc(S(=O)(=O)N3CCOCC3)c(Cl)cc1Cl)CC2,active: 25.1 µM
20,Cc1ccsc1/C=N/NC(=S)NCCc1ccccc1,inactive
21,COC(=O)C1=C(c2ccc(Cl)c(C(F)(F)F)c2)C[C@@H]2CC[C@H]1N2C(=O)N1CCOCC1,"inconclusive [inhibitor, partial curve]"
22,O=C(Nc1ccc(Cl)cc1)N1CCN(c2ccc3nnc(-c4ccc(F)cc4)n3n2)CC1,"inconclusive [inhibitor, full curve, poor fit]"

row,SMILES,Potency
1,C[C@H](O)[C@@H]1C(=O)N2CCc3ccc(-c4ccccc4)cc3[C@@H]2C[C@@H]1N(C)C(=O)Nc1cc(Cl)cc(Cl)c1,active: 11.2 µM
2,O=C(CCN1CCOCC1)NC12CC3CC(CC(C3)C1)C2,inactive
3,COc1ccccc1OCCNc1ccc(S(=O)(=O)N2CCCC2)cn1,"inconclusive [inhibitor, full curve, poor fit]"
4,Cc1ccc(S(=O)(=O)c2cc3c(=O)n4cccc(C)c4nc3n(CC3CCCO3)c2=N)cc1C (stereo unspecified),"inconclusive [inhibitor, full curve]"
5,CCN(CC)CCOC(=O)c1ccc(NC(=O)c2cn(-c3ccccc3)nc2-c2cccs2)cc1,active: 7.94 µM
6,COc1cc(CCC(O)CC(=O)CCc2ccccc2)ccc1O (stereo unspecified),active: 1.12 µM
7,O=C(Nc1ccccc1Cl)N1CCN(c2ccc3nnc(-c4ccc(F)cc4)n3n2)CC1,"inconclusive [inhibitor, full curve, poor fit]"
8,COc1cccc(-c2cc(C(=O)NCC3CCCO3)c3cc(Br)cc(C)c3n2)c1 (stereo unspecified),"inconclusive [inhibitor, full curve, poor fit]"
9,Cc1ccc(SCC(=O)OCC(=O)NCCc2ccccc2)cc1,inactive
10,O=C(Nc1cc(C(F)(F)F)ccc1N1CCCCC1)c1ccco1,"inconclusive [inhibitor, single point]"
11,COc1ccc(S(=O)(=O)N2CCC(C(=O)Nc3cc(Cl)ccc3N3CCOCC3)CC2)cc1OC,"inconclusive [inhibitor, single point]"
12,CCCCC[C@H]1CN(C2CCCCC2)C(=O)[C@@H]1CC(=O)NCc1ccc(OC)cc1,"inconclusive [inhibitor, single point]"
13,Cc1cccc(-c2nc(S(=O)(=O)c3ccc(F)cc3)c(NCCCN3CCOCC3)o2)c1,inactive
14,CCOC(=O)c1cc(-c2ccc(OC)cc2)n[nH]1,inactive
15,CCC(=O)NC(Nc1sc2c(c1C(=O)OC)CCC2)C(Cl)(Cl)Cl (stereo unspecified),"inconclusive [inhibitor, partial curve, poor fit]"
16,CC(=O)N1CCSc2ccc(S(=O)(=O)N3CCC(C)CC3)cc21,"inconclusive [inhibitor, single point]"
17,C/C(=N\NC1=NCCN1)c1ccc(N)c([N+](=O)[O-])c1,"inconclusive [inhibitor, partial curve, poor fit]"
18,N#Cc1ccc2[nH]c(CO)c(-c3ccccc3)c2c1,"inconclusive [inhibitor, single point]"
19,COc1ccc(C(=O)Nc2ccc(NC(C)=O)cc2)cc1S(=O)(=O)N1CCCCC1C (stereo unspecified),"inconclusive [inhibitor, partial curve, poor fit]"
20,CCc1cc2ccc(C)cc2nc1SCC(=O)c1ccc(NC(C)=O)cc1,"inconclusive [inhibitor, partial curve]"
21,Cc1nc(-c2ccc(NC(=O)CC(C)C)cc2)cs1,inactive
22,COc1ccc(C)cc1NC(=O)c1sc2nc(C)nc(N3CCOCC3)c2c1C,"inconclusive [inhibitor, partial curve, poor fit]"

row,SMILES,Potency
1,CN(C)S(=O)(=O)c1cccc(-c2nnc(SCc3ccc4c(c3)OCCO4)o2)c1,"inconclusive [inhibitor, single point]"
2,COc1ccc(-n2c(SCC(=O)NCc3cccs3)nc3[nH]ncc3c2=O)cc1,inactive
3,CC(C)Cc1ccc(C(C)NC(=O)Cc2ccc(S(=O)(=O)N3CCOCC3)s2)cc1 (stereo unspecified),"inconclusive [inhibitor, single point]"
4,Cc1oc(C(=O)Nc2ccc(O)cc2)cc1COc1ccccc1,"inconclusive [inhibitor, partial curve]"
5,COc1ccc(-c2cn3c(C)c(C(=O)N4CCN(c5ccccc5F)CC4)sc3n2)cc1,"inconclusive [inhibitor, partial curve]"
6,Cc1cc(OCC(=O)C(C)(C)C)c2c(C)c(C)c(=O)oc2c1,"inconclusive [inhibitor, full curve]"
7,O=S(=O)(O)Oc1c[nH]c2ccccc12,"inconclusive [inhibitor, partial curve]"
8,COC(=O)[C@@]1(Cc2ccc(OC)cc2)[C@H]2c3cc(C(=O)N(C)C)n(Cc4ccc(OC(F)(F)F)cc4)c3C[C@H]2CN1C(=O)c1ccccc1,"inconclusive [inhibitor, single point]"
9,O=C(COc1ccc(Br)cc1CO)Nc1ccccc1,active: 15.8 µM
10,CCOc1ccc(CCNC(=O)COC(=O)c2ccc(Cl)nc2)cc1OCC,"inconclusive [inhibitor, partial curve, poor fit]"
11,COc1cccc(-c2sc3ccc(OC)cc3c2C#CC(C)(C)O)c1,active: 7.08 µM
12,Cc1cccc(NC(=S)NC(=O)C(c2ccccc2)c2ccccc2)n1,"inconclusive [inhibitor, single point]"
13,COc1cc2c(cc1NC(=O)/C=C/c1cc(OC)c(OC)c(OC)c1)oc1ccccc12,active: 8.91 µM
14,Fc1ccccc1CN1CCN(c2ncccn2)CC1,inactive
15,CC1CCCC(NC(=O)CN(C)CC(=O)Nc2ccc(F)cc2)C1C (stereo unspecified),"inconclusive [inhibitor, single point]"
16,Cc1ccc(C)c(S(=O)(=O)N2CCN(C(=O)CCNC(=O)c3ccc(Br)cc3)CC2)c1,"inconclusive [inhibitor, single point]"
17,CCO[C@@H]1OC(C(=O)N2CCN(Cc3ccc4c(c3)OCO4)CC2)=C[C@H](c2ccc(C(F)(F)F)cc2)[C@H]1CCCO,"inconclusive [inhibitor, partial curve]"
18,CN(C)S(=O)(=O)c1cccc(COC(=O)Cc2c(F)cccc2Cl)c1,"inconclusive [inhibitor, partial curve]"
19,N#C/C(=C1/CCCCCN1)c1nc2ccccc2[nH]1,"inconclusive [inhibitor, partial curve, poor fit]"
20,O=C(NC(Cc1ccccc1)C(=O)N1CCN(c2ccccn2)CC1)c1ccco1 (stereo unspecified),"inconclusive [inhibitor, partial curve]"
21,Cc1cc(-c2ccccc2)nc(N2CCC(C(=O)NC(C)C)CC2)n1,"inconclusive [inhibitor, single point]"
22,COc1ccc(Nc2cc3n(c(=O)n2)CCc2cc(OC)c(OC)cc2-3)c(C)c1,"inconclusive [inhibitor, partial curve, poor fit]"
